# According to patent US12129305B2, “Targeting CLPTM1L for treatment and prevention of cancer” (The Medical College of Wisconsin, Inc., priority 2018, dated 2024):
# B1: 102-5: Human anti-CRR9/CLPTM1L IgG1; heavy chain V SEQ ID NO:30, light chain V SEQ ID NO:31 (antibody, V domains shown)
# VH: EVQLLESGGGLVQPGGSLRLSCAASGFSFSSYEMNWVRQAPGKGPEWISYISSGGGTIYYADSVRGRFTISRDNSNNTLYLQMNSLRPDDTAIYYCARDRGRKWLQLLFDSWGQGTLVTVSS
# VL: QAVLTQPPSASGTPGQKVTISCSGSSSNIGSNTVNWYQQLPGTAPKLLIYTNNQRPSGVPDRFSGSKSGASASLAISGLQSKDEADYYCAAWDDSLNGWVFGGGTKLTVLG
# modifications: Synthetic- Anti-CRR9/CLPTM1L clone 102-5 heavy chain V; Synthetic- Anti-CRR9/CLPTM1L clone 102-5 light chain V
# Tests used:
# [1] = test system: Panc1 cells; test: gemcitabine killing with culture supernatants (live imaging cytotoxicity); format: cell-based, human
# Protocol: (§1) (A) Western blotting of whole-cell, apoptotic bodies, extracellular vesicles, and microvesicles isolated from Panc1 cells treated with vehicle control or 200 nM gemcitabine. (B) Relative killing (live imaging cytotoxicity) of Panc1 cells treated for 48 hours with −40 nM gemcitabine and culture supernatants from donor cells with vector control or overexpressing CLPTM1L. (C) Relative killing (live imaging cytotoxicity) of Panc1 cells treated with 0-40 nM gemcitabine and culture supernatants (1:1 mix with fresh media) (top panel) or 25 μL extracellular vesicles (EVs) (ExoQuick exosomal fraction) per mL of media (bottom) from Panc1 donor cells with vector control, CLPTM1L overexpression, or CLPTM1L ectodomain deletion mutant (CLPTM1L ALoop) overexpression. (D) Western blotting of Panc1 lysates treated as above with the indicated supernatants and/or 102-5 anti-CLPTM1L for phospho-Akt (T308) and total Akt. (E) Characterization of extracellular vesicles isolated from human serum by ultra-centrifugation by western blotting for exosomal markers CD9 and CD63, and for CLPTM1L using 102-5 antibody (left); and by transmission electron microscopy (right). Scale bar=500 nM. […]
# Cells were plate at equal density on 24 well tissue culture plates and treated as indicated. […] A killing index was calculated for each well by dividing the number of dead cells by the number of total cells. […]
# [2] = test system: A2780 ovarian tumor cells; test: carboplatin killing after human serum extracellular vesicles; format: cell-based; conditions: vesicles pretreated 24 hours with 200 nM 102-5; 40 μM carboplatin 4 days
# Protocol: as §1, with “Akt.” for “Akt. (E) Characterization of extracellular vesicles isolated from human serum by ultra-centrifugation by western blotting for exosomal markers CD9 and CD63, and for CLPTM1L using 102-5 antibody (left); and by transmission electron microscopy (right). Scale bar=500 nM.”
# Ultracentrifugation Protocol: One milliliter of serum was centrifuged at 2000×g, 4° C., 15 minutes on a table top centrifuge to remove debris. […] Vesicle size was measured using AMT Image Capture Engine Software Version 602.571. Protein concentration of samples was measured on a Qubit (Life Technologies). […]
# [3] = test system: ID8-luc ovarian tumor cells; test: ID8-luc orthotopic syngeneic ovarian isograft model; format: in vivo, C57bl/6 mice
# Protocol: ID8-luc model: Five-week-old C57bl/6 mice (Jackson labs strain 664) were acclimated for one week and injected intraperitoneally with […] luciferase expressing ID8 syngeneic ovarian tumor cells suspended in 200 μL of PBS under Medical College of Wisconsin animal protocol AUA6339. One week after injection, antibodies and/or chemotherapeutic agents were administered intraperitoneally at the indicated doses. Chemotherapeutic doses or vehicle were administered one day before control or therapeutic antibody doses. Imaging and analysis of luciferin radiance was done up to twice weekly on an IVIS Spectrum-CT Imaging System equipped with thermoelectrically-cooled CCD camera. Mice were monitored twice weekly for weight and signs of morbidity. Mice were euthanized after 45 days or upon signs of morbidity. Animal studies were conducted using the standards for humane treatment of animals as described in the U.S. Public Health Service Policy on Humane Care and Use of Laboratory Animals.
# With disseminated peritoneal disease being the most common presentation upon recurrence of ovarian carcinoma, we utilized an orthotopic isograft model of disseminated peritoneal ovarian cancer. Human anti-CLPTM1L binding to luciferase-expressing ID8 ovarian tumor cells (ID8-luc) was detected by flow cytometry (FIG. 31A). […] Tumor load was monitored by luciferin luminescence using whole body imaging. […]
# [4] = test system: normal, benign, and tumor tissues; test: immunohistochemical staining of tumor microarray, tissue cross-reactivity; format: binding
# Description: FIG. 16 presents data characterizing tissue cross-reactivity (top) and tumor specificity (bottom) of clone 102-5.
# [5] = antibody stability, NanoDSF melt curves; format: physicochemical; conditions: stored at 4° C. in PBS pH 7.4 for 5 months
# Protocol: Antibodies stored at 4° C. in PBS pH 7.4 for 5 months.
# [6] = test system: ovarian tumor cells; test: internalization into tumor cells; format: cell-based
molecule,measurement,setting,value
B1,gemcitabine killing,[1],sensitization to gemcitabine killing
same,cytoprotection conferred by supernatants,[1]; supernatants from CLPTM1L-overexpressing cells,abrogated the cytoprotection conferred by supernatants
same,resistance to carboplatin from serum extracellular vesicles,[2],abrogated resistance to carboplatin with significantly increased killing
same,relative tumor load,"[3]; 10 mg/kg weekly I. P., day 42, control 2.45-fold, p<0.005",0.90 fold
same,tumor load,"[3]; combination: carboplatin following anti-CLPTM1L, over 35 days, p<0.05",0.23 fold
same,tumor specificity of tissue binding,[4],binding to tumor tissue with little to no binding to normal or benign tissues
same,antibody stability,[5],stable under these conditions
same,internalization,[6],internalized into ovarian tumor cells in a receptor-dependent fashion
